Paper PMC8098127, “A new crystal form of GABARAPL2” (Acta Crystallographica. Section F, Structural Biology …, 2021)
“And” between values parts separate entries of the source, which are not always exact repeats. Identical values can stand only once. Ends that are not written are not given here. * marks the point of attachment. LC‑biotin = O=C(CCCC[C@@H]1SC[C@@H]2NC(=O)N[C@@H]21)NCCCCCC(=O)*

Biological target: T1, NDP52 I133W LIR peptide (I133W (stands in the printed letters))
T1 construct: LIR stretch of NDP52 (CALCOCO2) with I133W; Captured by its biotin on a streptavidin sensor chip; also called Super LIR; generic LIR peptide; source: synthetic peptide; bought: Mimotopes; not shown: LC-biotin, N-terminal, kept
T1 peptide: {LC‑biotin}-ENEEDWLVVTTQGE
Test: SPR; BIAcore S200; biotinylated peptide captured on a streptavidin chip, GABARAPL2 injected in a threefold, ten-step dilution series; 10 mM HEPES, 150 mM NaCl, 3.4 mM EDTA, 0.05% Tween pH 7.4; steady-state fit
Details: both partners purified

- Kd: 4.85 µM and 5.07 µM
B1: GABARAPL2 (natural protein)
chain: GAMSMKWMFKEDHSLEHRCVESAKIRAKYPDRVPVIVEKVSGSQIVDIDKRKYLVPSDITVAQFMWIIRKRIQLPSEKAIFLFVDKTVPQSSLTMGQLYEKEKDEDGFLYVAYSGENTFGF
notes: non-native N-terminal residues of the construct produced, left after TEV cleavage from the GST fusion; GABARAPL2 (GATE-16), human, full length with the C-terminal Phe117 kept ([…]); Expressed from pETM-30 as a GST fusion from synthetic DNA; also called GATE-16; GBRPL2; source: E. coli BL21 (DE3), purified (Glutathione Sepharose, on-column TEV cleavage, Superdex S75)
